Assay results taken from publication PMC4336329 (PLoS ONE, 2015).
Hit rate of the full screen: of about 310,000 compounds, about 14,000 (4.5%) showed an effect of 50% or more. Effects have a minus sign here. This is one part of the list.

target: human ether-à-go-go-related gene (hERG) potassium channel (human, UniProt Q12809); assay: primary screen, population patch clamp on CHO cells stably expressing hERG
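Also: peak tail current of the secondary pulse compared with the same well before compound.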

human ether-à-go-go-related gene (hERG) potassium channel, sequence (Q12809 whole entry, looked up): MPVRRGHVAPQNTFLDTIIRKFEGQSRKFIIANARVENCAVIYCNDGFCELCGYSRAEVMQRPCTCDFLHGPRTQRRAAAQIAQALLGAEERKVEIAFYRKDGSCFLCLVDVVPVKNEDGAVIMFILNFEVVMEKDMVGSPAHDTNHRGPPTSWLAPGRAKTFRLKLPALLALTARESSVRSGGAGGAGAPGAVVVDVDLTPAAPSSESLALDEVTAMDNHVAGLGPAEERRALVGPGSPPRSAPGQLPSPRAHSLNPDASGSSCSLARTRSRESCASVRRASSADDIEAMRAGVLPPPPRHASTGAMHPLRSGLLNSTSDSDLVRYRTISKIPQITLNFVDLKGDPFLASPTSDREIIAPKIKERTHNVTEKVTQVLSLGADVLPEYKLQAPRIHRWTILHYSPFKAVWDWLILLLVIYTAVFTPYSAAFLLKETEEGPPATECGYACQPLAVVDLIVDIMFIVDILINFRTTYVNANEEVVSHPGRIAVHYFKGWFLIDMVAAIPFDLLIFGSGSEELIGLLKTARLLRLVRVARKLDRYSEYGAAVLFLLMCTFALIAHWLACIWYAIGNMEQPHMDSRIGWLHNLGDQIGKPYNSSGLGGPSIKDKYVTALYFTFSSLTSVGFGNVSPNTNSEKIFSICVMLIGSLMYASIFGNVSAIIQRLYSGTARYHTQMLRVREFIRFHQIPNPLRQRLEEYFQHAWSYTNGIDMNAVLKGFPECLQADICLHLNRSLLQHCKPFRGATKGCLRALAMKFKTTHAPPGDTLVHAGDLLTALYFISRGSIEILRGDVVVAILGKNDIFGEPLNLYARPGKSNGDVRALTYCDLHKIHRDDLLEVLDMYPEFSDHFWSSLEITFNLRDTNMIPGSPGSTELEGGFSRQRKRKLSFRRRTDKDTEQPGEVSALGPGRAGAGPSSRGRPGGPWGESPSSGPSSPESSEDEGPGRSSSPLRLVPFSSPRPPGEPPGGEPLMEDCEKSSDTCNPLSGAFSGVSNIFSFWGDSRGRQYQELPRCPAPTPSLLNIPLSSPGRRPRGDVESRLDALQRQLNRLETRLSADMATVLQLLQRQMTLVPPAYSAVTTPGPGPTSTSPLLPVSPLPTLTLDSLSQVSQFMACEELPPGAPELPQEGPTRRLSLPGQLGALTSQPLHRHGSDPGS

Row | Structure (SMILES) | hERG current change (%, negative = inhibition) at 10uM [%]
1 | Cc1nnc(NC(=O)c2ccc(Br)o2)s1 | 18.7
2 | COc1ccc(/C=C2\SC(=S)N(CCC(=O)NCCCn3ccnc3)C2=O)cc1 | -28.5
3 | COc1ccc2[nH]c(C(=O)Nc3ccc4c(c3)OCO4)cc2c1 | 10.6
4 | Cl.O=C(CN1CCCCC1)c1ccc2c(c1)OCO2 | -4.7
5 | COc1cc2nc3occc3c(OC)c2cc1OC | -9.31
6 | Cc1cc(=O)n2[nH]c(N)c(N=Nc3ccccc3)c2n1 | -2.95
7 | O=C(c1cc(-c2ccccc2Cl)nc2ccccc12)N1CCOCC1 | -6.68
8 | COC(=O)N/N=C/c1ccc(OS(=O)(=O)c2ccc(C)cc2)c(OC)c1 | -17.2
9 | COc1ccc(N/C=C\C(=O)c2ccc3ccccc3c2)cc1 | 14.3
10 | CN1C(=O)c2cccc3c(N)ccc(c23)C1=O | 7.03
11 | CCCOc1ccccc1N/C(=N/c1nc(C)cc(C)n1)NC(=O)Nc1ccc(Cl)cc1 | -1.32
12 | CCN(CC)c1nc(C)nc2c1sc(=S)n2C | -1.82
13 | O=C(CC1CCCC1)N1CCCC(Nc2ccc(F)cc2)C1 (stereo not shown) | 2.02
14 | Cc1nc(SCC(=O)NCC2CCCO2)c2c3c(sc2n1)CCC3 (stereo not shown) | -26.7
15 | O=C(CCN1C(=O)/C(=C/c2cccs2)SC1=S)Nc1cccc(C(=O)O)c1 | 22.7
16 | CCC1CCCCN1Cc1ccc(N)cc1 (stereo not shown) | -1.13
17 | CCOC(=O)C1=C(COC(=O)CCOc2cc(C)ccc2C)NC(=O)NC1C (stereo not shown) | -26.5
18 | CCn1c(O)c(C=Nc2ccccc2)n(-c2ccccc2)c1=S | 4.53
19 | COc1cc(/C=N/NC(=O)CCN2CCCCC2)ccc1O | -12
20 | CCOC(=O)C1CCCN(S(=O)(=O)Cc2ccc(Cl)cc2)C1 (stereo not shown) | -5.86
21 | Cc1nn(-c2ccccc2)c(C)c1/C=N/NC(=O)c1cc(C2CC2)[nH]n1 | -6.3
22 | Cc1ccc(S(=O)(=O)NCCc2nc3ccccc3[nH]2)cc1 | 12.9
23 | Cc1cccc(Cn2cc(/C=C/[N+](=O)[O-])c3ccccc32)c1 | -12.2

Row | Structure (SMILES) | hERG current change (%, negative = inhibition) at 10uM [%]
24 | CCCN(CC1CC1)c1nc(N)c(C#N)c(CC#N)c1C#N | -0.666
25 | O=C(c1ccc2c3n(nc2c1)-c1ccc(Cl)cc1CO3)N1CCCCC1 | -15.1
26 | Cc1occc1-c1nnc(SCC(=O)Nc2ccccc2)n1Cc1ccccc1 | -76.3
27 | Cc1ccc(C(=O)NNC(=O)c2ccc3c(c2)OCCO3)cc1 | -7.92
28 | CCN1CCN(C(=S)Nc2cccc(C(F)(F)F)c2)CC1 | -7.79
29 | O=C(CC(=O)N/N=C/c1ccc(Cl)cc1Cl)NCc1ccccc1 | -4.37
30 | Cn1cccc1C(=O)NCc1ccc(Cl)cc1 | 0.265
31 | CN1C(=O)NC(c2ccc(O)cc2)C2=C1CN(c1ccccc1)C2=O (stereo not shown) | -11.9
32 | CCCN(CCC)CCNC(=O)C1c2ccccc2C(=O)N2CCc3ccccc3C12 (stereo not shown) | -11
33 | CCOC(=O)c1sc(NC(=O)c2cc(-c3ccccc3)nc3ccccc23)c(C#N)c1C | 20.6
34 | CCOC(=O)N1CCN(C(=O)c2ccc3nc(SCc4ccc(F)cc4)n(C)c3c2)CC1 | -45.5
35 | COc1cc(C(=O)NCC2CCCCC2)cc(OC)c1OC | -67.3
36 | COc1cccc(/C=N/NC(=O)c2[nH]c(C)c(C(=O)N/N=C/c3cccc(OC)c3O)c2C)c1O | 11.7
37 | CNC(=O)c1ccc(NC(=O)Cc2ccc(S(=O)(=O)N3CCOCC3)s2)cc1 | 13.2
38 | Cc1csc2ncnc(NC3CCN(Cc4ccccc4)CC3)c12 | -65.5
39 | Cc1nc(C)c(-c2ccc(SCC(=O)Nc3cccc(F)c3)nn2)s1 | 8.66
40 | Cc1ccc(S(=O)(=O)/N=C(/Nc2cccc3ccccc23)c2ccc(F)cc2)cc1 | -12.4
41 | CC(=O)Nc1c(C(=O)N2CCCCCC2)cnn1-c1ccccc1Cl | 6.47
42 | CCCCOc1ccc(CC(=O)NCC(=O)O)cc1 | 6.54
43 | CCOC(=O)c1c(NC(=O)Cn2cc([N+](=O)[O-])cn2)sc2c1CCC2 | -11.6
44 | CCCN(CC(=O)Nc1ccccc1C)C(=O)c1ccc(N2CCCC2=O)cc1 | -4.11
45 | Cc1ccnc(NC(=O)c2ccc(S(=O)(=O)N3CCC(C)CC3)cc2)c1 | -5.75
46 | O=C(c1cc(Sc2cccc(Cl)c2)nc2ccccc12)N1CCN(c2ccccn2)CC1 | -10.7

Row | Structure (SMILES) | hERG current change (%, negative = inhibition) at 10uM [%]
47 | O=C(CCN1CCCCC1)N=Nc1c(O)[nH]c2ccccc12 | 11.3
48 | COc1ccc(-c2nnn(CC(=O)NC3CCCc4ccccc43)n2)cc1OC (stereo not shown) | 8.26
49 | NNC(=O)C=C1CCN(c2ncc(C(F)(F)F)cc2Cl)CC1 | 4.01
50 | O=C(Nc1nnc(-c2ccccc2)o1)c1cccc(N2C(=O)CCC2=O)c1 | 9.91
51 | CC1CCCN(CCCNC(=O)c2ccc(NC(=O)C3=CSCCO3)cc2)C1 (stereo not shown) | 2.91
52 | CCCC(C)NC(=O)c1cc(S(=O)(=O)N2CCCCCC2)ccc1OC (stereo not shown) | -54.4
53 | C/C(=N\Nc1cc(C(F)(F)F)ccc1Cl)c1ccncc1 | 13.7
54 | CN(C)c1ccc(/C=C2\SC(=S)N(Nc3ncc(C(F)(F)F)cc3Cl)C2=O)cc1 | -19.9
55 | O=C(Nc1ccncc1)C1CCN(S(=O)(=O)c2ccccc2)CC1 | 3.04
56 | CCn1c(SC/C=C/c2ccccc2)nnc1-c1cccs1 | -66.3
57 | CCOC(=O)C1CCCN(S(=O)(=O)c2ccc3ccccc3c2)C1 (stereo not shown) | -29.8
58 | O=C(CSc1cccc[n+]1[O-])c1ccc(Cl)cc1 | -21.8
59 | O=C(O)CNS(=O)(=O)c1ccc2[nH]c(=O)c(=O)[nH]c2c1 | 17.7
60 | CCN1CCN(C(c2cccs2)C(C)NC(=O)C(C)C)CC1 (stereo not shown) | 9.03
61 | C=CCN=C(SCC(=O)c1ccc(Cl)cc1)c1c(O)n(C)c(=O)n(C)c1=O | -9.99
62 | O=C(CS(=O)(=O)c1ccccc1)Nc1nnc(C(F)(F)F)s1 | 23.3
63 | O=C(NC(Cc1ccccc1)c1ccc2c(c1)OCCCO2)c1ccc(F)cc1 (stereo not shown) | 8.05
64 | O=C(CCc1ccccc1)Nc1ccc(S(=O)(=O)N2CCOCC2)cc1 | -28.1
65 | Cc1cccc(Nc2nc(C)cc(C)c2C#N)c1 | 11.1
66 | CN(C)S(=O)(=O)c1cc(NC2CC(=O)N(c3ccc(F)cc3)C2=O)ccc1Cl (stereo not shown) | -51.1
67 | O=c1c2ccccc2nc(CNc2ccccc2)n1-c1ccccc1 | 16.4
68 | O=C(CSc1cc(Cl)ccc1Cl)NC1CCCC1 | 1.73
69 | O=C1CCC(C(=O)N2CCSCC2)CN1Cc1ccc(Cl)cc1 (stereo not shown) | -5.13

Row | Structure (SMILES) | hERG current change (%, negative = inhibition) at 10uM [%]
70 | Cc1ccc(NC(=O)c2ccc(C)c(S(=O)(=O)N3CCCCC3)c2)nc1 | -23
71 | CC(=O)c1cc(C(C)=O)c(C)nc1C | 15.9
72 | CC(c1ccccc1)N(C)C(=O)CSc1nnc(C2CC2)n1C1CC1 (stereo not shown) | -2.75
73 | CCc1ccc(C(=O)NNc2cc(Cl)ccc2Cl)cc1 | 8.65
74 | COC(=O)CSc1nnc(CNC(=O)c2cc(OC)c(OC)c(OC)c2)n1C | -0.781
75 | Cc1cc(NC(=O)Cc2cccs2)no1 | 12.3
76 | CC(=O)c1cccc(OCC(=O)Nc2cc(S(=O)(=O)N3CCOCC3)ccc2N2CCCC2)c1 | -15.4
77 | CCc1ccccc1N1C[C@@]23C=C[C@@H](O2)C(C(=O)OCC(C)C)[C@H]3C1=O (stereo partly shown) | -7.71
78 | COCCN(C(=O)CSc1cc(C)c2ccccc2n1)c1c(N)n(CC(C)C)c(=O)[nH]c1=O | 0.153
79 | CCSc1ccccc1C(=O)N1CCN(c2ccccc2F)CC1 | 17.6
80 | CCCCOC(=O)Nc1ccc(C(C)C)cc1 | 5.49
81 | COC(=O)c1c(NC(=O)C2CC(=O)NN2Cc2ccccc2)sc(C)c1C (stereo not shown) | 6.43
82 | O=C(COc1ccccc1Cl)NCc1nc(-c2ccccc2)no1 | -0.239
83 | CCCN(C1CCS(=O)(=O)C1)S(=O)(=O)c1ccc(F)cc1 (stereo not shown) | -3.44
84 | CSc1nsc(NC(=O)Cc2ccccc2)n1 | -8.68
85 | O=C(CN1CCN(S(=O)(=O)c2cccs2)CC1)NCC1CCCCC1 | -29.8
86 | COc1ccc(/C=N/N2C(=O)CSC2=S)cc1 | 14.4
87 | COC(=O)CNC(c1ccccc1Cl)c1cc(Br)ccc1NC(=O)CCN1CCOCC1 (stereo not shown) | -32.5
88 | Cc1cc(C)n(-c2ccc(C(C)C)cc2)c(=O)c1C#N | -25
89 | O=C(Nc1nc2ccc(F)cc2s1)C1CCCO1 (stereo not shown) | -7.17
90 | CCOc1ccc2nc(/N=C/c3c(C)[nH]n(-c4ccc(C)cc4)c3=O)sc2c1 | -1.61
91 | CCCCn1c(NCCN(C)C)nc2c1c(=O)[nH]c(=O)n2C | -10.7
